# Among all 52,000 compounds or so, about 4,300 (8.3%) were called active. Cut-off read from the data, not from the text of the source: active = survival mostly below about 52% (no sharp cut-off); inactive = mostly above about 56%. The list shows a part of the results.
# Test system: DeltatarO mutant
# Test: S. aureus survival, RN4220 and DeltatarO strains – OD600, teichoic acid synthesis inhibitors, primary screen (AID 463173)
# Conditions: S. aureus RN4220 wild type/DeltatarO growth, OD600, 18 h, hits give low values, screened at 18.75 µg/mL (by protocol)
row,Structure (SMILES),survival
1,Cn1nnnc1SCCNCc1ccccc1OCc1ccc(Cl)cc1Cl,inactive: 63%
2,CC(C)OCCCN(C)C1CCN(S(=O)(=O)c2csc(C(N)=O)c2)CC1,inactive: 74%
3,CCOCCCNC(=O)Nc1cc(C(=O)NCc2ccc(C(C)C)cc2)ccc1N1CCCC1,inactive: 87%
4,Cc1ccc(N2CCN(S(=O)(=O)c3ccc4oc(=O)c5ncn(C)c5c4c3)CC2)c(C)c1,inactive: 128%
5,COc1ccc(-n2c(C)nc3cc(C(=O)NC4CCCC4)ccc32)cc1,inactive: 77%
6,Cc1cccc(-c2nnc(SCC(=O)N3CCCc4ccccc43)o2)c1,active: 11%
7,COc1cc2c(cc1OC)C(COc1ccc(F)cc1)N(C(=O)c1ccccc1F)CC2 (stereo not given),inactive: 71%
8,Cc1ccc2nc(NC(=O)C(C)C)sc2c1,inactive: 75%
9,Cc1ccccc1-c1nc(CS(=O)(=O)CC(=O)Nc2cccc(C(F)(F)F)c2)c(C)o1,inactive: 112%
10,Cc1ccc(S(=O)(=O)NCCc2sc3nc(-c4ccccc4)nn3c2C)cc1C,inactive: 76%
11,COc1ccc2c(c1)c1c(c(=O)n(Cc3ccccc3)c(=O)n1CC(=O)Nc1c(C)cccc1C)n2C,inactive: 72%
12,O=C(c1cccc(Cl)c1)N(Cc1ccco1)Cc1ccccc1Cl,active: 32%
13,CCc1nc2onc(C)c2c(=O)n1CC(=O)O,inactive: 103%
14,CCOC(=O)c1[nH]c(Cc2[nH]c(C(=O)OCC)c(C)c2CC(=O)OC)c(CCC(=O)OC)c1C,inactive: 70%
15,COC(=O)c1ccc(C(=O)O)s1,inactive: 93%
16,Cn1cnnc1SC1CCCCC1NS(=O)(=O)c1ccc(Cl)cc1 (stereo not given),inactive: 66%
17,O=S(=O)(Nc1cccc(-c2ccc(N3CCCCCC3)nn2)c1)c1ccccc1,active: 6%
18,Cc1oc(-c2cccc(Br)c2)nc1Cn1c(=O)cc(-c2ccccc2)c2c(C)nn(C)c21,inactive: 88%
19,CC(C)(C)c1ccc(OCCCC(=O)N2CCOCC2)cc1,inactive: 96%
20,COc1ccc(-c2noc(Cn3c(=O)c4ccccc4n(CC(=O)Nc4cccc(C(F)(F)F)c4)c3=O)n2)cc1,inactive: 92%
21,CC(C)NC(=O)N1CCC(N2CCN(Cc3ccc(F)cc3)C(=O)C2=O)CC1,inactive: 101%
22,CCOc1ccc(N(CC)S(=O)(=O)N2CCCC(C(=O)NCc3ccc(Cl)cc3)C2)cc1 (stereo not given),inactive: 69%
23,O=C(Cc1ccc(F)cc1)NCCc1csc(-c2cccc(F)c2)n1,inactive: 88%
24,O=C(Nc1ccc2nc(SCC(=O)N3CCCc4ccccc43)sc2c1)c1cccc(Cl)c1,inactive: 88%
25,COCCCNS(=O)(=O)c1ccc(N2CCCCS2(=O)=O)cc1,inactive: 67%
